Experiment [1] has as its target human STX4, cytosolic fragment (residues 1–271 with 272C, lacking the transmembrane domain) (human) (UniProt Q12846). The experiment can be described thus: SEC; 100 mM (so in the source) of each protein mixed, overnight at room temperature; complex purified on ENrich SEC 70 in 20 mM HEPES pH 7.4, 100 mM NaCl, 0.2 mM TCEP, 1% CHAPS; both purified. On the technique in general: In gel filtration, larger molecules generally elute earlier.

Amino acid sequences for entries named in this document (tags omitted). A change or cut given only in a name is not applied to a line headed by its entry. Chains listed by the source or under a name are the forms on record and can include a tag or linker. Residues count along the entry.
human STX4, cytosolic fragment (residues 1–271 with 272C, lacking the transmembrane domain) (Q12846, form named): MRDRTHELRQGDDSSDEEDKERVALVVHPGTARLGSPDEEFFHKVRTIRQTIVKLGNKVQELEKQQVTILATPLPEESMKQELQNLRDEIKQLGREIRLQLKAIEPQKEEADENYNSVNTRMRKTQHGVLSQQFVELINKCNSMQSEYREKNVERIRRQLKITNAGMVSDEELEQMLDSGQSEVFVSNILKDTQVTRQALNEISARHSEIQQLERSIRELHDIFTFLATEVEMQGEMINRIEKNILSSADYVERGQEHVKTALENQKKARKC
UniProt P70452: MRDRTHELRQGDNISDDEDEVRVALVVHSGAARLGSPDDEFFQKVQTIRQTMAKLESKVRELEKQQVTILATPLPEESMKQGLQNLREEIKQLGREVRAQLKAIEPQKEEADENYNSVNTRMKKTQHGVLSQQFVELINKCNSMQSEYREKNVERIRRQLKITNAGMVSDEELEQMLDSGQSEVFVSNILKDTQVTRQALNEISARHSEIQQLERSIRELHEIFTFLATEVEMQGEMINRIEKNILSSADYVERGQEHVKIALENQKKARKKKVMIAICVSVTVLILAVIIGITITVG
UniProt P63045, residues 49-96: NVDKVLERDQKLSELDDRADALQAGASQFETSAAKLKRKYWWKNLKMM
UniProt P63024: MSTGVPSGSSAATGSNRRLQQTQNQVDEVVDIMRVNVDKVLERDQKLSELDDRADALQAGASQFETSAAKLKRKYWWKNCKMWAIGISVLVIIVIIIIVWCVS
human VAMP3 WT, cytosolic fragment (residues 1–77, lacking the transmembrane domain) (Q15836, residues 1-77): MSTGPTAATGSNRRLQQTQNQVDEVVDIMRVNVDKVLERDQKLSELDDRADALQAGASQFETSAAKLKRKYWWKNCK
human VAMP3 S44A, cytosolic fragment (residues 1–77) (Q15836, form named): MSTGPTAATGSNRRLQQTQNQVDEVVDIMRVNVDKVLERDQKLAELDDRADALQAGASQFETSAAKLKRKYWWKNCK
human VAMP3 S44E, cytosolic fragment (residues 1–77) (Q15836, form named): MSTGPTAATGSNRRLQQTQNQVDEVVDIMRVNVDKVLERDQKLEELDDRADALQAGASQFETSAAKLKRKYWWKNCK

The target in experiment [2] is T1, GFP–WDFY2 (human WDFY2) (human) (UniProt Q96P53).
T1 sequence: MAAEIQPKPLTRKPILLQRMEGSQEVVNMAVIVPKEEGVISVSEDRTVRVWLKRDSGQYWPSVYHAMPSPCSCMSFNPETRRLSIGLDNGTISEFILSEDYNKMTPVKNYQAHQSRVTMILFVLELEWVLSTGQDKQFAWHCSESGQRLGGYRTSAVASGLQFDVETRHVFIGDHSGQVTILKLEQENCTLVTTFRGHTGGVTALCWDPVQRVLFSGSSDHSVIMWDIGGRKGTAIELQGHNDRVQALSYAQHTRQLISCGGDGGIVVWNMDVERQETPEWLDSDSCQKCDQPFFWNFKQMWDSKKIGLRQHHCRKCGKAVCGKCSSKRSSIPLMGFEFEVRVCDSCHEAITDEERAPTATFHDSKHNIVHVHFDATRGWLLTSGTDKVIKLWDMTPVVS
The experiment in a line: co-IP; HEK293 cells co-transfected with pEGFP-N1-WDFY2 and a VAMP3–mCherry construct; RIPA lysate, 2 mg protein, anti-GFP antibody overnight at 4°C, protein A/G magnetic beads; blots for WDFY2 and VAMP3.

For experiment [3], the target named is STX4–mCitrine (mouse STX4), in dendritic cells (mouse) (UniProt P70452). The experiment in a line: FRET or BRET; FRET–FLIM in live human monocyte-derived dendritic cells at 37°C; donor STX4–mCitrine, acceptor VAMP3–mCherry; lifetime of STX4–mCitrine analysed at the cell periphery (approximating the plasma membrane). In general terms: Bioluminescence resonance energy transfer reports proximity on the nanometre scale.

Experiment [4] addresses preformed acceptor complex of SNAP23, cytosolic fragment of STX4 and VAMP2(49–96) (UniProt Q12846). The experiment can be described thus: SDS-resistant SNARE complex formation (SDS-PAGE, Coomassie Blue); 10 mM (so in the source) of the STX4 complex with SNAP23 and VAMP2 (49–96) mixed with VAMP3, room temperature overnight; samples heated 10 min at 95°C or not heated; ternary complexes SDS resistant at 20°C; single experiment; both purified.

This is an account of results in publication PMC12579954.

No constants are given. Whether binding was seen depends on the method and setting. For some of these results: In cells and extracts the contact can be indirect. Some binding calls cover weakened binding; strength is not graded here. For some of these results: Where a sequence is shown, tags or fusion partners need not be part of it.

On to “VAMP2 (49–96) (from UniProt P63045 49-96) (domain or fragment)”, for which the binding entry in experiment [1] is recorded as “binds”. As to “VAMP3–mCherry S48A (mouse VAMP3), in HEK293 cells (from UniProt P63024 1-103)”, the binding result in experiment [2] was “no binding”. On to “VAMP3–mCherry S48A (mouse VAMP3, phosphodead), in dendritic cells (from UniProt P63024 1-103)”, for which, in experiment [3], the binding entry was “binds”. “VAMP3–mCherry S48E (mouse VAMP3), in HEK293 cells (from UniProt P63024 1-103)”: the binding entry in experiment [2] is recorded as “no binding”. For “VAMP3–mCherry S48E (mouse VAMP3, phosphomimetic), in dendritic cells (from UniProt P63024 1-103)”, the binding entry in experiment [3] is reported as “binds”. In the case of “VAMP3–mCherry WT (mouse VAMP3), in HEK293 cells (from UniProt P63024 1-103)”, in experiment [2], the binding entry was “binds”. As for “human VAMP3 S44A, cytosolic fragment (residues 1–77) (from UniProt Q15836 1-77) (domain or fragment)”, the binding result in experiment [4] is on record as “binds”. Take “human VAMP3 S44E, cytosolic fragment (residues 1–77) (from UniProt Q15836 1-77) (domain or fragment)”: the binding entry in experiment [4] is listed as “binds”. Same read-out and setting: the entry for “human VAMP3 WT, cytosolic fragment (residues 1–77, lacking the transmembrane domain) (from UniProt Q15836 1-77) (domain or fragment)” is “binds”.

B1: SNAP23 (protein, UniProt O00161 1-211)
chain: MDNLSSEEIQQRAHQITDESLESTRRILGLAIESQDAGIKTITMLDEQKEQLNRIEEGLDQINKDMRETEKTLTELNKCCGLCVCPCNRTKNFESGKAYKTTWGDGGENSPCNVVSKQPGPVTNGQLQQPTTGAASGGYIKRITNDAREDEMEENLTQVGSILGNLKDMALNIGNEIDAQNPQIKRITDKADTNRDRIDIANARAKKLIDS
In the case of B1, the binding result in experiment [1] is “binds”.
